Reference: PubChem BioAssay AID485281 (National Center for Advancing Translational Sciences (NCATS), 2010)
“And” between values parts separate entries of the source, which are not always exact repeats. Identical values can stand only once. Among all 350,000 compounds or so, about 260 (0.074%) were called active. The shares of active, inactive and inconclusive entries below differ from those in the screen. Calls come from the whole dose curve; as a rule, active = well fitted inhibition curve with a large enough effect; inconclusive = small, poorly fitted or top-dose-only effect; inactive = no such curve, though single readings can be large or run the other way. Potencies beside an inconclusive call are fits to weak or partial responses and may not hold up.

What follows are compounds tested against Ferritin light chain (Equus caballus) (UniProt P02791) (assay: qHTS Assay for Identification of Novel General Anesthetics). Settings: apoferritin/1-aminoanthracene competitive binding, fluorescence; activity change, negative = displacement: at 77.5 µM (top of the series).
Summary of the method: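 10 uM apoferritin + 50% sat. 1-AMA, PBS; cpd 10 min RT; Ex380/Em535 endpoint; normalized to free probe vs complex; 4-param Hill fit; propofol titration as pos. ctrl.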
% is set by controls: 0 for no effect and ±100 for the full control effect; potency is the fitted concentration of half-maximal effect; tags give direction and shape of the fitted curve.
Note: nearly all actives have a fitted effect of over 20% in size.

UniProt P02791, sequence (P02791 whole entry, looked up): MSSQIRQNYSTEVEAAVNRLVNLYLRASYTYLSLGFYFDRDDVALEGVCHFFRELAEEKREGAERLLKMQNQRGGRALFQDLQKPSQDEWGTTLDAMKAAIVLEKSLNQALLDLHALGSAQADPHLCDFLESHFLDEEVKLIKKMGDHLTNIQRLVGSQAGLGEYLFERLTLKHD

SMILES	activity change, negative = displacement	Potency
O=C1NC2(O)C(=O)c3ccccc3C2(O)N1 (stereo not given)	inactive: -2.7%	
COc1cc(CCC(=O)OCC(=O)NCC2CCCCC2)cc(OC)c1OC		inconclusive: 22.4 µM [inhibitor, partial curve]
Cc1cccc(C(=O)Nc2ccc(N3CC=C(c4ccccc4C)CC3)c(C(=O)O)c2)c1	inactive: -10.2%	
Cc1cc(-c2nnc(-c3cc4ccccc4oc3=O)o2)c(C)n1-c1ccccc1		inconclusive: 12.6 µM [inhibitor, partial curve]
COc1ccc(-c2csc(NC(=O)C3CC(=O)N(c4ccc5c(c4)OCCO5)C3)n2)cc1 (stereo not given)		inconclusive: 25.1 µM [inhibitor, partial curve]
O=C(NCCc1ccc(Cl)cc1)c1ccc(Nc2nc3ccccc3n3nnnc23)cc1	inactive: 7.38%	
COC(=O)NCCOC(=O)N(O)c1ccc(Br)cc1		inconclusive: 25.1 µM [inhibitor, partial curve]
COc1ccc(NC(=O)c2nc(SCc3ccc(F)cc3)ncc2Cl)cc1		inconclusive: 12.6 µM [inhibitor, partial curve]
COc1ccc(N(Cc2cc3ccccc3[nH]c2=O)S(=O)(=O)c2ccc(C)cc2)cc1		inconclusive: 2.51 µM [inhibitor, partial curve]
CCC(C(=O)NNC(=O)c1cnccn1)c1ccccc1 (stereo not given)	inactive: 1.2%	
Cc1cc(C)cc(NC(=O)CSc2nnc(-c3ccccc3Br)o2)c1		inconclusive: 50.1 µM [inhibitor, single point]
S=C(NCCc1ccccn1)Nc1ccc(Cl)cc1Cl	inactive: -0.898%	
Cc1nnc(-c2ccc(Oc3ccc(C)c(C)c3)c([N+](=O)[O-])c2)o1		inconclusive: 35.5 µM [inhibitor, partial curve]
Cc1cc(OCc2cc(C(=O)N(C)C(C)c3ccccn3)no2)cc(C)c1Cl (stereo not given)		inconclusive: 56.2 µM [inhibitor, single point]
COc1cc2nc(C)sc2cc1SC	inactive: -10.6%	
NC1=NN=C(N2N=C(c3ccco3)CC2(O)C(F)(F)F)n2ncnc2C1 (stereo not given)	inactive: -5.57%	
Clc1ccc(CSc2nnc(CNc3cccc(Cl)c3)o2)cc1		inconclusive: 5.62 µM [inhibitor, partial curve]
CC1CC(C)(C)N(C(=O)CSc2ccc(-c3ccc(F)cc3)nn2)c2ccccc21 (stereo not given)		inconclusive: 7.94 µM [inhibitor, full curve]
Cn1cccc1C1NC(=O)c2c(sc3c2CCC(C(C)(C)C)C3)N1 (stereo not given)		inconclusive: 28.2 µM [inhibitor, single point]
COc1cccc(-c2nc(-c3ccccn3)no2)c1		inconclusive: 31.6 µM [inhibitor, single point]
CC(Sc1nnnn1C1CCCCC1)C(=O)O (stereo not given)		inconclusive: 44.7 µM [inhibitor, single point]
Nc1nonc1-c1noc(COc2ccccc2Cl)n1		inconclusive: 11.2 µM [inhibitor, partial curve]

SMILES	activity change, negative = displacement	Potency
O=C(Nc1ccc(N2CCOCC2)cc1)c1ccc([N+](=O)[O-])o1	inactive: -9.64%	
Cn1cc(/C=C2\SC(=S)N(NC(=O)c3cccc(Cl)c3)C2=O)c2ccccc21	inactive: -0.562%	
Cc1ccc(-c2csc3ncnc(Sc4nnc(CN5CCCCCC5=O)o4)c23)cc1		inconclusive: 22.4 µM [inhibitor, partial curve]
O=[N+]([O-])c1ccc(NC2CCN(Cc3ccccc3)CC2)c([N+](=O)[O-])c1		inconclusive: 39.8 µM [inhibitor, partial curve]
CCOC(=O)/C=c1\s/c(=C\c2sccc2C)c(=O)n1CC(=O)NCc1ccc(C)cc1	inactive: 48.9%	
NS(=O)(=O)c1ccc(CCNC(=O)c2cc(-c3ccccn3)nc3ccc(Br)cc23)cc1	inactive: -2.48%	
Cc1ccc(-n2c(SCC(N)=O)nnc2-c2ccc(S(=O)(=O)N3CCCCC3)cc2)c(C)c1		inconclusive: 44.7 µM [inhibitor, partial curve]
COc1cc(C2CC(=O)Nc3ccc4ccccc4c32)ccc1OC(=O)C(C)C (stereo not given)		inconclusive: 14.1 µM [inhibitor, partial curve]
COc1ccc(CCNc2ccc(C(CC(N)=O)NC(=O)c3cc(OC)ccc3OC)cc2[N+](=O)[O-])cc1 (stereo not given)		inconclusive: 44.7 µM [inhibitor, partial curve]
C/C(CC(=O)NC12CC3CC(CC(C3)C1)C2)=N\NC(=O)c1cnccn1		inconclusive: 14.1 µM [inhibitor, partial curve]
COc1cccc(NC(=O)CN2C(=O)NC(C)(CC(C)C)C2=O)c1 (stereo not given)		inconclusive: 56.2 µM [inhibitor, single point]
COCCNC(=O)Cn1nc(-c2ccc(C)cc2)c2ccccc2c1=O		inconclusive: 14.1 µM [inhibitor, partial curve] and inconclusive: 31.6 µM [inhibitor, partial curve]
C=CCn1c(CSCc2ccc(C)cc2)nnc1SCC(=O)NCc1ccccc1		inconclusive: 56.2 µM [inhibitor, single point]
Cc1ccccc1-c1nnc(SCC(=O)Nc2ccc(Cl)cc2)n1N		inconclusive: 56.2 µM [inhibitor, single point]
CCOc1cc(S(=O)(=O)N2CCC(Cc3ccccc3)CC2)c(OCC)cc1-n1cnnn1	inactive: 4.8%	
COc1cccc(Cn2nnc3c(=O)[nH]c(C4CCCN(C(=O)c5ccccc5Cl)C4)nc32)c1 (stereo not given)		inconclusive: 31.6 µM [inhibitor, partial curve]
CCN(CC)CCNC(=O)c1[nH]c2ccc(OCc3ccccc3)cc2c1C		inconclusive: 11.2 µM [inhibitor, full curve]
CCOc1ccc(NC(=O)CSc2c3c(nc4ccccc24)CCCC3)cc1		inconclusive: 39.8 µM [inhibitor, single point]
Cc1cccc(NC(=S)NC2CCCC2)n1	inactive: -19%	
COc1ccc(OC)c(NC(=O)C(=O)NNC(=O)C23CC4CC(CC(C4)C2)C3)c1		inconclusive: 28.2 µM [inhibitor, partial curve, poor fit]
CC(C)(C)c1ccc(C(=O)N2CCCC(c3nc4c(nnn4Cc4cccc(F)c4)c(=O)[nH]3)C2)cc1 (stereo not given)		inconclusive: 8.91 µM [inhibitor, partial curve]
O=S(=O)(C=C(c1ccccc1)c1ccccc1)c1ccccc1		inconclusive: 25.1 µM [inhibitor, partial curve]

SMILES	activity change, negative = displacement	Potency
O=C(NCc1nnc2c3ccccc3c(-c3ccccc3)nn12)c1ccccc1Cl		inconclusive: 28.2 µM [inhibitor, partial curve]
COc1ccc(-n2nc(C(=O)NCC(=O)N3CC(C)CC(C)C3)c3ccccc3c2=O)cc1 (stereo not given)		inconclusive: 39.8 µM [inhibitor, single point]
CCOc1cccc(CN2CCCC(C(=O)c3cccc(C(F)(F)F)c3)C2)c1O (stereo not given)		inconclusive: 31.6 µM [inhibitor, partial curve]
Cn1c(Cc2c[nH]c3ccccc23)n[nH]c1=S		inconclusive: 56.2 µM [inhibitor, single point]
Cc1ccc(C(=O)CSc2nnc(COc3cccc4cccnc34)o2)cc1		inconclusive: 35.5 µM [inhibitor, partial curve]
N#C/C(=N/Nc1ccccc1F)C(=N)N1CCOCC1		inconclusive: 28.2 µM [inhibitor, partial curve]
CCN(CC)C(=O)c1oc2ccc(S(=O)(=O)N3CCCCCC3)cc2c1C		inconclusive: 14.1 µM [inhibitor, partial curve]
COc1ccc2c(c1)CCc1c(C(=O)NCCCn3ccnc3)noc1-2	inactive: -18.4%	
CCc1ccc(C(=O)CC2(O)C(=O)N(Cc3ccc(C)cc3)c3ccccc32)cc1 (stereo not given)		inconclusive: 14.1 µM [inhibitor, partial curve]
CC(NS(=O)(=O)c1ccccc1Cl)C1CC2CCC1C2 (stereo not given)		inconclusive: 28.2 µM [inhibitor, partial curve]
O=C(CCc1ccccc1)NNC(=O)C12CC3CC(CC(C3)C1)C2		inconclusive: 31.6 µM [inhibitor, partial curve]
CSc1nnc(Cc2ccc3c(c2)OCO3)o1		inconclusive: 44.7 µM [inhibitor, single point]
CCOC(=O)c1nn(-c2ccccc2)c(-c2ccccc2)c1C(=O)c1ccccc1		inconclusive: 11.2 µM [inhibitor, partial curve]
CC(=O)c1ccc(-c2cccc([C@H]3[C@@H]4C=CC[C@@H](C)[C@@H]4C(=O)N3Cc3ccccc3)c2)cc1		inconclusive: 8.91 µM [inhibitor, partial curve]
CC(C)(C)C(=O)COC(=O)c1ccccc1O		inconclusive: 31.6 µM [inhibitor, partial curve]
CCc1cccc(NC(=O)CN2C(=O)NC3(CCCCCCC3)C2=O)c1		inconclusive: 7.08 µM [inhibitor, partial curve]
Cc1ccc(NC(=O)Cn2nnc(C(=O)NCc3ccco3)c2N)cc1		inconclusive: 3.55 µM [inhibitor, full curve, poor fit]
COc1ccccc1-c1nnc(Sc2nc([N+](=O)[O-])nn2C)o1	inactive: -13.1%	
O=C(O)c1ccc(NCc2cccc(Br)c2)cc1	inactive: -17.4%	
COc1ccc(/C=N/NC(=O)c2nn(-c3ccc(Cl)cc3)c(=O)c3c(N)scc23)cc1		inconclusive: 44.7 µM [inhibitor, partial curve]
O=C(c1cccc(Cl)c1)c1nn(-c2ccccc2)c(=O)cc1C(F)(F)F		inconclusive: 35.5 µM [inhibitor, partial curve]
